# Laboratory results reported in article PMC4336329 (PLoS ONE, 2015).
# Out of some 310,000 compounds screened, about 2,200 (0.71%) showed an effect of 50% or more. Effects have a minus sign here. This is one part of the list.
# Target: human ether-à-go-go-related gene (hERG) potassium channel (human, UniProt Q12809)
# Experiment: primary screen, population patch clamp on CHO cells stably expressing hERG
# human ether-à-go-go-related gene (hERG) potassium channel, sequence (Q12809 whole entry, looked up): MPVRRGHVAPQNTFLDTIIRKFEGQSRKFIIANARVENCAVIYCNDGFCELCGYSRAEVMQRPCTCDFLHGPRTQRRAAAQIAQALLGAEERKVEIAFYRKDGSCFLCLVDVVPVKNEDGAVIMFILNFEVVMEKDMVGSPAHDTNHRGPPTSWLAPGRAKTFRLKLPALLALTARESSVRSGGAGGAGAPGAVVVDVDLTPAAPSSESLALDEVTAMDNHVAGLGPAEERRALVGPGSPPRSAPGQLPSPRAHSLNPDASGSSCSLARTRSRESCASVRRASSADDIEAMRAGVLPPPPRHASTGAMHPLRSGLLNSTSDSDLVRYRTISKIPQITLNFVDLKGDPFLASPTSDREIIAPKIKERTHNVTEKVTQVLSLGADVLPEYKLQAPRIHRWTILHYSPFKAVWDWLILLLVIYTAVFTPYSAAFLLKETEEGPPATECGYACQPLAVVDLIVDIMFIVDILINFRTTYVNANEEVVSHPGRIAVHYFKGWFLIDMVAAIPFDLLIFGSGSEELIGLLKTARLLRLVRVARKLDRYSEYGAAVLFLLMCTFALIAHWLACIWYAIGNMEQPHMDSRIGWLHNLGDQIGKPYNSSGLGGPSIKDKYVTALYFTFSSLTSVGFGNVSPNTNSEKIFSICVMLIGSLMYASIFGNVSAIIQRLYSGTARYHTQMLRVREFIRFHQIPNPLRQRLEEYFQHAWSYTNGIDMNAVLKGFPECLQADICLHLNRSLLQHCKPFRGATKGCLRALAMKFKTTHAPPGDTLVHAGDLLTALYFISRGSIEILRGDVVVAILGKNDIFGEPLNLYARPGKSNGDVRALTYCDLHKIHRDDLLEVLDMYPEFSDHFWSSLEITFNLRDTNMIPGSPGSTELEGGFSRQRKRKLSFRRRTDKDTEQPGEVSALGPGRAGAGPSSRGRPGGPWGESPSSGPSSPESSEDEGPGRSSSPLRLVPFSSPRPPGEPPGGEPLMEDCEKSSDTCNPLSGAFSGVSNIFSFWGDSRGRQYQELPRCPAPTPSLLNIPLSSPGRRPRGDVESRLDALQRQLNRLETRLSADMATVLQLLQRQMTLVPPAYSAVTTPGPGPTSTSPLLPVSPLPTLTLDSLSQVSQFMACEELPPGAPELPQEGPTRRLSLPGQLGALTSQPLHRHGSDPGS
row,Structure (SMILES),"hERG current change (%, negative = inhibition) at 1uM"
1,O=C(Nc1cccc([N+](=O)[O-])c1)c1cccc(C(=O)Nc2cccc([N+](=O)[O-])c2)c1,20.8%
2,CCC(=O)c1ccc(N2CCN(C(=O)COc3ccc(F)cc3)CC2)c(F)c1,-71.3%
3,CC1(C)CC(=O)C2=C(C1)N(Cc1cccnc1)C(=O)C2(NC(=O)c1ccc(F)cc1)C(F)(F)F (stereo not drawn),-13.2%
4,COCCNC(=O)/C(C#N)=C/c1c(N2CCN(c3ccccc3)CC2)nc2c(C)cccn2c1=O,14.3%
5,CC(C)OC(=O)c1cc(NC(=O)C2C3C=CC(O3)C2C(=O)O)cc(C(=O)OC(C)C)c1 (stereo not drawn),3.7%
6,COc1cccc(-c2cc3c(=O)n(-c4ccccc4)c(=S)[nH]c3s2)c1,11.8%
7,CCn1ncc(Br)c1C(=O)Nc1cc(C)ccc1F,8.55%
8,COc1ccc(C(=O)C[n+]2ccc3c(c2)nc(-c2ccccc2)n3C)cc1.[Br-],-0.564%
9,Cc1ccc(C)c2sc(NC(=O)c3ccc(N4C(=O)CCC4=O)cc3)nc12,-0.478%
10,Cc1nc(N2CCOCC2)nc(OC(C)C)c1[N+](=O)[O-],6.71%
11,O=C(CN1C(=O)NC2(CCCCC2)C1=O)N1CCOCC1,7.63%
12,Cc1ccccc1C(=O)c1c[nH]c(C(=O)N2CCN(c3ccccc3F)CC2)c1,10.6%
13,COc1ccc(OC)c(NC(=O)C(C)N2c3cccc4cccc(c34)S2(=O)=O)c1 (stereo not drawn),13%
14,COc1cccc(CN2CCN(c3nc4nonc4nc3N3CCCCC3)CC2=O)c1,4.7%
15,CCOc1ccc(C(=O)NC(C)C2COc3ccccc3O2)cc1 (stereo not drawn),-0.571%
16,COc1cc(NC(=O)c2noc3c2CCCC3)c(OC)cc1Cl,7.92%
17,CCn1c(O)c(N=NC(=O)CNc2cccc(C)c2)c2ccccc21,11.8%
18,Cc1ccc(-c2csc(NC(=O)CN3CC(C)OC(C)C3)n2)cc1 (stereo not drawn),11.1%
19,CCOc1ccccc1NCc1cc(=O)oc2cc(C)c(O)cc12,16.1%
20,CCCCNC(=O)NS(=O)(=O)c1ccc(C(=O)OC)o1,3.41%
21,COCCSc1nc2sc3c(c2c(=O)n1-c1ccccc1)CCN(C)C3,15%
22,Cc1ccc(OCCN2CCCCCC2)c(C)c1,-15.3%
23,Cc1nnc(SCC(=O)N2CC(=O)Nc3ccccc32)n1-c1ccccc1,15.3%
24,O=C(NCC1CCCO1)C1CCCN(S(=O)(=O)c2ccc(Br)cc2)C1 (stereo not drawn),6.18%
